From the supplement of paper PMC8728848 come the findings set out here.

What all share (assay): glycan array binding signal (z-score within array); higher = stronger binding
Holding throughout (details): glycan notation: IUPAC condensed, linker removed

The target in assay [1] is Gal(b1-3)GalNAc(b1-3)Gal(a1-4)Gal(b1-4)Glc. In outline: (§1)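 Arrays were curated from the Consortium for Functional Glycomics database, 3228 in total, and kept only where the protein sequence was available. Binding is expressed as a within-array Z-score. This score was averaged across arrays of the same protein sequence at different concentrations or buffers and across linkers, and negative values can be read as non-binding.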

For assay [2], the target named is Gal(b1-3)GalNAc(b1-4)Gal(b1-4)Glc. In outline:
as §1

Assay [3] deals with Gal(b1-3)GalNAc(b1-4)[Neu5Ac(a2-3)]Gal(b1-4)Glc. In outline: as §1
In the next assay the target is Gal(b1-3)GlcNAc. In outline:
as §1

The target of assay [4] is Gal(b1-3)GlcNAc(a1-3)Gal(b1-4)GlcNAc. Summed up:
as §1

Assay [5] concerns the target Gal(b1-3)GlcNAc(a1-6)Gal(b1-4)GlcNAc. In outline:
as §1

The target of the next assay is Gal(b1-3)GlcNAc(b1-2)Man. In outline:
as §1

In assay [6] the target is Gal(b1-3)GlcNAc(b1-2)Man(a1-3)[Gal(b1-3)GlcNAc(b1-2)Man(a1-6)]Man(b1-4)GlcNAc(b1-4)GlcNAc. Summed up: as §1
The target in assay [7] is Gal(b1-3)GlcNAc(b1-2)Man(a1-3)[Gal(b1-3)GlcNAc(b1-2)Man(a1-6)]Man(b1-4)GlcNAc(b1-4)[Fuc(a1-6)]GlcNAc. In outline: as §1
The target of assay [8] is Gal(b1-3)GlcNAc(b1-2)Man(a1-3)[GlcNAc(b1-4)][Gal(b1-3)GlcNAc(b1-2)Man(a1-6)]Man(b1-4)GlcNAc(b1-4)GlcNAc. In outline:
as §1

Assay [9] deals with Gal(b1-3)GlcNAc(b1-2)[Gal(b1-3)GlcNAc(b1-6)]Man(a1-6)[Gal(b1-3)GlcNAc(b1-2)Man(a1-3)]Man(b1-4)GlcNAc(b1-4)GlcNAc. In outline: as §1
Assay [10] has as its target Gal(b1-3)GlcNAc(b1-3)Gal(b1-3)GlcNAc. In outline: as §1
The target of assay [11] is Gal(b1-3)GlcNAc(b1-3)Gal(b1-4)Glc. In outline:
as §1

Assay [12] concerns the target Gal(b1-3)GlcNAc(b1-3)Gal(b1-4)GlcNAc. Summed up: as §1
In assay [13] the target is Gal(b1-3)GlcNAc(b1-3)Gal(b1-4)GlcNAc(b1-2)Man(a1-3)[Gal(b1-3)GlcNAc(b1-3)Gal(b1-4)GlcNAc(b1-2)Man(a1-6)]Man(b1-4)GlcNAc(b1-4)GlcNAc. In outline: as §1
The target of assay [14] is Gal(b1-3)GlcNAc(b1-3)Gal(b1-4)GlcNAc(b1-2)[Gal(b1-3)GlcNAc(b1-3)Gal(b1-4)GlcNAc(b1-6)]Man(a1-6)[Gal(b1-3)GlcNAc(b1-3)Gal(b1-4)GlcNAc(b1-2)Man(a1-3)]Man(b1-4)GlcNAc(b1-4)[Fuc(a1-6)]GlcNAc. Summed up: as §1
Assay [15] concerns the target Gal(b1-3)GlcNAc(b1-3)Gal(b1-4)GlcNAc(b1-3)Gal(b1-4)GlcNAc(b1-2)[Gal(b1-3)GlcNAc(b1-3)Gal(b1-4)GlcNAc(b1-3)Gal(b1-4)GlcNAc(b1-6)]Man(a1-6)[Gal(b1-3)GlcNAc(b1-3)Gal(b1-4)GlcNAc(b1-3)Gal(b1-4)GlcNAc(b1-2)Man(a1-3)]Man(b1-4)GlcNAc(b1-4)[Fuc(a1-6)]GlcNAc. Summed up: as §1
In assay [16] the target is Gal(b1-3)GlcNAc(b1-3)Gal(b1-4)GlcNAc(b1-6)[Gal(b1-3)GlcNAc(b1-3)]Gal(b1-4)Glc. Summed up: as §1
The target of assay [17] is Gal(b1-3)GlcNAc(b1-3)Gal(b1-4)[Fuc(a1-3)]GlcNAc. Summed up: as §1
Assay [18] deals with Gal(b1-3)GlcNAc(b1-3)Gal(b1-4)[Fuc(a1-3)]GlcNAc(b1-6)[Gal(b1-3)GlcNAc(b1-3)]Gal(b1-4)Glc. In outline: as §1
Assay [19] has as its target Gal(b1-3)GlcNAc(b1-3)GalNAc. Summed up:
as §1

The target of assay [20] is Gal(b1-3)GlcNAc(b1-6)Gal(b1-4)GlcNAc. Summed up: as §1
Assay [21] concerns the target Gal(b1-3)GlcNAc(b1-6)GalNAc. Summed up:
as §1

Some of the results follow.

B1: Cohesin-hLangerin (Homo sapiens) (protein)
chain: LDDLDAVRIKVDTVNAKPGDTVRIPVRFSGIPSKGIANCDFVYSYDPNVLEIIEIEPGDIIVDPNPDKSFDTAVYPDRKIIVFLFAEDSGTGAYAITKDGVFATIVAKVKEGAPNGLSVIKFVEVGGFANNDLVEQKTQFFDGGANVGDTTEPATPTTPVTTPTTTDDLDAASYPRFMGTISDVKTNVQLLKGRVDNISTLDSEIKKNSDGMEAAGVQIQMVNESLGYVRSQFLKLKTSVEKANAQIQILTRSWEEVSTLNAQIPELKSDLEKASALNTKIRALQGSLENMSKLLKRQNDILQVVSQGWKYFKGNFYYFSLIPKTWYSAEQFCVSRNSHLTSVTSESEQEFLYKTAGGLIYWIGLTKAGMEGDWSWVDDTPFNKVQSARFWIPGEPNNAGNNEHCGNIKAPSLQAWNDAPCDKTFLFICKRPYVPSEPHHHHHH
For B1, the “glycan array binding signal (z-score)” value was -0.332 in [1]; -0.402 in assay [2]; -0.292 in assay [3]; -0.322 in the assay with Gal(b1-3)GlcNAc; -0.425 in [4]; -0.39 in assay [5]. Besides, the “glycan array binding signal (z-score)” value with Gal(b1-3)GlcNAc(b1-2)Man was -0.114; in assay [6], 0.179; in [7] it was 0.003; in assay [8] it was 4.37; in assay [9], 4.81; in assay [10] it was -0.372. Further, the “glycan array binding signal (z-score)” value was -0.373 in assay [11]; -0.406 in assay [12]; 1.62 in assay [13]; 3.71 in assay [14]; 5.37 in [15]; -0.418 in assay [16]. Further, the “glycan array binding signal (z-score)” value is -0.366 in assay [17]; -0.447 in assay [18]; -0.379 in [19]; -0.363 in assay [20]; -0.23 in [21].
